Assay results: article PMC11443517, “A Modular Biosensor Design for Quantitative Measurement of Free Nedd8” (ACS Sensors, 2024)

T1: engineered DEN1 (eDEN1) (UniProt Q96LD8 1-212, C163A | histidine at position 102 to arginine | serine at position 160 to …)
T1 construct: deneddylase DEN1 (SENP8) with C163A, H102R and S160D; source: E. coli BL21-CodonPlus (DE3), purified (HisTrap FF, size exclusion)
T1 sequence: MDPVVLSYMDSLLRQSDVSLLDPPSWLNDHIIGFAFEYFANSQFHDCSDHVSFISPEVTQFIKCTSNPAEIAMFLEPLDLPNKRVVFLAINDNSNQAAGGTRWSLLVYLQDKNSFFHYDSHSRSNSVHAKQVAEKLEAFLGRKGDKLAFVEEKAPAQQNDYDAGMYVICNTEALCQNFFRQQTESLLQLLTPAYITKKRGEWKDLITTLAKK

B1: fluorescein-labeled free Nedd8 (T20C) (natural protein)
chain: not shown
modifications: fluorescein-maleimide on cysteine 20
notes: free (unconjugated, processed) Nedd8, without the five C-terminal residues of the precursor; threonine 20 mutated to cysteine for labelling; also called free Nedd8 labeled with fluorescein
B2: fluorescein-labeled precursor Nedd8 (T20C) (natural protein)
chain: not shown
modifications: fluorescein-maleimide on cysteine 20
notes: precursor Nedd8: the endogenous form with an additional five amino acids extending from the C-terminus of free Nedd8; threonine 20 mutated to cysteine for labelling; Cloned in pET28a; also called precursor Nedd8 labeled with fluorescein

Biological target: T1, engineered DEN1 (eDEN1)
Test: fluorescence polarisation; fluorescence anisotropy of 4 nM fluorescein-labelled free or precursor Nedd8 with varying eDEN1; PBS pH 7.4, 0.05% Brij-35, 0.2 mg/mL ovalbumin, 1 mM DTT; excitation 493 nm, emission 556 nm; single-site fit; duplicate
Details: both partners purified

| Binder | Kd [nM] |
| --- | --- |
| B1 | 6.3 |
| B2 | > 2000 |
